In patent US8178490B2, “Polybasic bacterial efflux pump inhibitors and therapeutic uses thereof” (priority 2007, dated 2012):
The name of at least one read-out is uncertain.

Tests used:
[1] = system: P. aeruginosa PAM1723, overexpressing the MexABOprM efflux pump; type: cell-based, Pseudomonas aeruginosa; details: lowest inhibitor concentration giving antibacterial activity with levofloxacin at 1/8 of its MIC
Source text: (§1) EPI activity is defined as concentration of an EPI compound that is necessary to achieve ½ of a maximum theoretical effect in increase of antibiotic susceptibility due to efflux inhibition. The maximum theoretical effect, Emax, is defined as a ratio of antibacterial activity of antibiotics (minimal inhibitory concentration, MIC) of pump overexpressing vs. pump lacking strains. […] The strain PAM1723, overexpressing the MexABOprM efflux pump was used as a test strain. […] Azithromycin was used as test antibiotic to assess the EPI activity in Klebsiella pneumoniae. The strain KPM1004 overexpressing the AcrABTolC efflux pump was used as a test strain. […] Thus, EPI activity, that is assessed in K. pneumoniae, is a concentration of an EPI compound that is necessary to increase susceptibility to azithromicin of KPM1004 sixteen fold.
(§2) The EPI activity of the test compounds was assessed by the checkerboard assay (Antimicrobial Combinations, Antibiotics in Laboratory Medicine, Ed. Victor Lorian, M.D., Fourth edition, 1996, pp 333338, which is incorporated herein by reference in its entirety) using a broth microdilution method performed as recommended by the NCCLS (National Committee for Clinical Laboratory Standards (NCCLS), 1997, Methods for Dilution of Antimicrobial Susceptibility Tests for Bacteria That Grow Aerobically, Fourth Edition; Approved Standard. NCCLS Document M7A4, Vol 17 No. 2, which is incorporated herein by reference in its entirety). […] All EPI compounds were readily soluble in water and stock solutions were prepared at a final concentration of 10 mg/ml. Stock solutions were further diluted, according to the needs of the particular assay, in Mueller Hinton Broth (MHB). Stock solution was stored at −80° C. The checkerboard assay was performed in microtiter plates. […] EPIs were diluted in the axis, each row containing a single concentration of an EPI. […] The assay was performed in MHB with a final bacterial (PAM1723 or […]) inoculum of 5 times 10^5 CFU/ml (from an early log phase culture). Microtiter plates were incubated during 20 h at 35° C. and were read using a microtiter plate reader (Molecular Devices) at 650 nm as well as visual observation using a microtiter plate reading mirror.
(§3) Azithromycin potentiation activities of selected inhibitors for K. pneumoniae are reported as MPC16 values.

[2] = system: Klebsiella pneumoniae KPM1004 overexpressing the AcrABTolC efflux pump; type: cell-based; details: lowest inhibitor concentration giving antibacterial activity with azithromycin at 1/16 of its MIC; K. pneumoniae KPM1004
Source text: as §1, §2, §3

| Compound | MPC8 (μg/mL) (Levofloxacin, PAM1723) [1] [µg/mL] | MPC16 (μg/mL) Azithromycin, KPM1004) [2] [µg/mL] |
| --- | --- | --- |
| Cl.Cl.Cl.Cl.NCCN(CCN)C(=O)C[C@H](N)C(=O)N[C@H](C(=O)Nc1cnc2ccccc2c1)C(O)c1ccc(C(F)(F)F)cc1 (stereo partly drawn) [Compound 169, 3-[(1S)-2-[bis(2-azaniumylethyl)carbamoyl]-1-{[(1S)-1-carbamoyl-2-hydroxy-2-[4-(trifluoromethyl)phenyl]ethyl]carbamoyl}ethan-1-aminium]quinolin-1-ium tetrachloride] | 1.25 | 1.25 |
| CC(C)Oc1ccc(NC(=O)[C@H](CCc2ccccc2)NC(=O)[C@@H](N)CC(=O)N(CCN)CCN)cc1 [Compound 214] | 2.5 | 1.25 |
| CC(C)Oc1ccc(NC(=O)[C@H](CCc2ccccc2)NC(=O)[C@@H](N)CC(=O)N(CCN)CCN)c(F)c1 [Compound 215] | 2.5 | 2.5 |
| NCCN(CCN)C(=O)C[C@H](N)C(=O)N[C@@H](CCc1ccccc1)C(=O)NCc1c(Cl)cccc1Cl [Compound 224] | >10 | 2.5 |
| COc1cc(OC(F)(F)F)ccc1CNC(=O)[C@H](CCc1ccccc1)NC(=O)[C@@H](N)CC(=O)N(CCN)CCN [Compound 233] | 1.25 | 0.60 |
| CC(C)Oc1ccc(CNC(=O)[C@H](CCc2ccccc2)NC(=O)[C@@H](N)CC(=O)N(CCN)CCN)cc1 [Compound 237] | 2.5 | 2.5 |
| CCCc1ccccc1NC(=O)[C@H](CCc1ccccc1)NC(=O)[C@@H](N)CC(=O)N(CCN)CCN [Compound 271] | 5 | 2.5 |
| NCCN(CCN)C(=O)C[C@H](NC(=O)[C@H](N)CO)C(=O)N[C@@H](Cc1ccc(C(F)(F)F)cc1)C(=O)Nc1cnc2ccccc2c1 [Compound 327, 3-[(2S)—N,N-bis(2-azaniumylethyl)-N′-[(1S)-1-carbamoyl-2-[4-(trifluoromethyl)phenyl]ethyl]-2-[(1R)-1-formamido-2-hydroxyethan-1-aminium]butanediamide]quinolin-1-ium tetrachloride] | 1.25 | 1.25 |
| Cl.Cl.Cl.NCCC[C@H](NC(=O)[C@@H](N)CCCN)C(=O)N[C@@H](CCc1ccccc1)C(=O)NCc1ccc(OC(F)(F)F)cc1 [Compound 331, (1S)-1-{[(1S)-4-azaniumyl-1-{[(1S)-3-phenyl-1-({[4-(trifluoromethoxy)phenyl]methyl}carbamoyl)propyl]carbamoyl}butyl]carbamoyl}butane-1,4-bis(aminium)trichloride] | >10 | 2.5 |
| Cl.Cl.Cl.Cl.NCCN(CCN)C(=O)[C@@H](N)CCC(=O)N[C@@H](CCc1ccccc1)C(=O)Nc1cnc2ccccc2c1 [Compound 345, 3-[(1S)-1-[bis(2-azaniumylethyl)carbamoyl]-3-{[(1S)-1-carbamoyl-3-phenylpropyl]carbamoyl}propan-1-aminium]quinolin-1-ium tetrachloride] | 2.5 | 1.25 |
| Cl.Cl.Cl.Cl.NCCN(CCN)C(=O)C[C@H](N)C(=O)NCC(=O)N[C@@H](CCc1ccccc1)C(=O)Nc1cnc2ccccc2c1 [Compound 348, 3-[(1S)-2-[bis(2-azaniumylethyl)carbamoyl]-1-[({[(1S)-1-carbamoyl-3-phenylpropyl]carbamoyl}methyl)carbamoyl]ethan-1-aminium]quinolin-1-ium tetrachloride] | 2.5 | 2.5 |
